The supplement of paper PMC10126150
Sequences with one replicate were seen in a single cluster, so their values are uncertain.

Test system: ATP
Test: switch fluorescence ratio, 500 uM ATP over buffer (Cy3 cluster intensity, sum of 5 cycles each) (fold (ratio)); higher = stronger signal-on switching upon ATP binding; sequences stand for … in TCGTCGGCAGCGTCAGATGTGTATAAGAGACAGTTTTTTTTTTTTTTTTTTTTTTTTT…TC
Conditions: aptamer strand: ATP DNA aptamer (quencher-CACCTGGGGGAGTATTGCGGAGGAAGG + anchor), 100 nM annealed; ATP concentration: 500 uM; one replicate
Procedure, shortened: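 Values give the fluorescence ratio for each switch-domain sequence, averaged from per-cluster ratios of summed target-cycle to summed buffer-cycle Cy3 intensity. The Cy3-labelled switching-strand clusters sat on a modified Illumina MiSeq flow-cell, were annealed to 100 nM quencher-labelled ATP aptamer, and were imaged in selection buffer, then after 15 min with 500 uM ATP at 22 °C. Five cycles ran with NaOH stripping and re-annealing between them, and clusters outside 100-1000 RFU were excluded.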
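Also: ATP exposure 15 min at 22 °C before imaging.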

Sequence | switch fluorescence ratio
CCAGTCCATT | 0.964
CTTCGCGTAT | 1.26
AAGACAAACG | 1.03
AGATTTGTAT | 0.94
GGGCGGGGTT | 1.02
TTATACTTAT | 1.02
TATGATCCTC | 0.997
AATTCAAAAT | 0.968
TGTGTGTGA | 1.04
GACGGATTGG | 0.944
TGCAGACCTA | 1.06
GGCCTCCTT | 1.03
CGGCATCAAT | 1.12
GTACGAATTT | 1.03
ATTGGGTCTG | 0.933
GCTATTCTAC | 1.06
TAAGTACGT | 1.2
CAGTGTGAGA | 1.05
ATTTATATAG | 0.987
CCTGGTTTGT | 0.994
GCGGGTCAGG | 0.983
GTGACATG | 0.928
TGTGCGACTT | 0.979
GGCAAAAAGG | 0.98
ACCCACTAAT | 1.27
AAAGAGCGTG | 0.961

Sequence | switch fluorescence ratio
AATCAACGTT | 1.07
TGTGTGGTTG | 1.04
ACGGGTGCAC | 0.999
GCCGTTTGCA | 0.972
ACAGGTAGCG | 1.05
TAAGGCGCTG | 0.97
CCATTTAACG | 0.962
GCCGGGCCAA | 1.01
CGTTATAGAA | 0.976
ATATTAGTG | 0.947
AAAGAAAACT | 1.06
GCTATGGGGC | 1.02
ATGCCAGTAA | 0.957
GTAGGGCCCC | 0.977
AGACTTAGGA | 1.03
CGTGCCGCAC | 1.34
TAAGGATTC | 1.02
GGGGACCTGA | 1.03
AATTGAATTG | 0.969
ACGGGTGAGG | 1.04
CAATAGCGCC | 1.06
CACCGGTGGT | 1.05
ATCGGAGGTT | 0.993
TTTAACAAGG | 1.04
TAGAATCCC | 0.997
CTTGTGTGTG | 0.994

Sequence | switch fluorescence ratio
AACCTAGGTT | 1.05
AAGTCCTAGA | 1
CGCGTATGGC | 1.1
CGAGTACATA | 1.14
TTGGGGCATT | 1.06
TCCAGATCA | 0.996
GGCAGGGAAC | 1.04
TCTATGGTTT | 0.987
CTGATGAGAT | 1.08
TGGGAGGGG | 0.975
AAAAAAAG | 1.02
TACGATAGCC | 1.17
ACGTGCTTCC | 1.86
TTAAAACAGG | 1.03
AATCGATTAT | 0.997
CCTGAAAAGA | 1.56
GGAAACCGCA | 2.17
ATACAAGCTA | 1.02
AACAAATTTG | 0.991
CAGCTGGGGC | 0.975
TGGGACTCAG | 0.978
TTAACAGCG | 0.979
TTTAATCCTT | 1.03
AAGCTGTACC | 1.17
CCCTTGTA | 0.992
ACGCCGGCAG | 1.03

Sequence | switch fluorescence ratio
TGGAGCGCAC | 1.6
CAGTAACGTC | 1.06
AGTGGATCGA | 0.979
TATCAAATAC | 1.22
GATGAGAGCA | 1
GAATGTAAAT | 0.989
GACACTTCG | 1.01
ATCATAAAAG | 0.989
AAACACTTTG | 0.998
AACGGGAGCA | 1.07
TTATCCGCG | 1.42
GCCTGCCGCA | 2.43
ACGTGATTCC | 1.16
ATTCTTGCT | 0.961
TCTACTTGTG | 1.01
TTATTTGGG | 1
GCAGCCTGGA | 1.05
CCAGGGAGCG | 1.02
CGTAGCCGGC | 0.966
CGCCCATACT | 2.44
CGCTGCAGAT | 1.43
AAGGGAAGGA | 1.03
AGTTATTGAC | 1.03
TCCTGGAGTT | 0.966
CGTGTGACGG | 1.09
TCTGAAGTG | 0.973

Sequence | switch fluorescence ratio
TGGATAAGAC | 1.05
GCGACAGGGA | 1.04
AAGGAAGGCG | 1.02
GCCTACATGC | 1.04
CGGTTTTGAA | 1
GTTGCTAAGG | 0.973
TAGTCCTTGA | 1.09
TGATGATGCA | 1.03
GGCGTATGGC | 1.03
ATCAAGATCT | 1.02
ATCCAGTGAG | 1.05
CCCGTCTACG | 1.06
TGCAGGGGAA | 1
GTCGCTCTGT | 0.998
AAGTTCATGT | 0.986
CGTCGTGAGT | 1.01
TTCTGAAAG | 0.976
ATGAAGTCGT | 1.03
TCAAAAAGGG | 1.05
TGGGTGGAGT | 0.948
TCAAGGCTTA | 1
GTTGTATTCA | 0.992
AAAGTATAG | 1
TAGCTATGGA | 1.03
AGACACGAGT | 1.03
TTACGGACAA | 1.76

Sequence | switch fluorescence ratio
TACTTCTGGA | 0.986
GTTATTAGG | 0.996
CGACAGAGCG | 1.07
GGACGTTTAT | 0.918
ATTCAAGTTG | 0.979
CGCGTACAGC | 1.06
TGAAGCTTTC | 1.68
AATTAATATA | 0.953
TTATAACTTG | 1.01
ATCAGACAAT | 1.01
GACGCCGTAT | 0.997
TACATTAGCG | 1.03
AGAAAGAATC | 1.04
GACCGCTAGA | 1.08
CCCGCAGGAT | 1.6
AATTGCACCC | 1.06
GGGAGTCAGT | 1.03
GCTGGCTCAG | 0.971
TGTTTTTCCA | 1.02
GTGCTAGGCC | 1.01
GGAGTTTATT | 1.02
TTCGGTGTCA | 1.01
CCTGTGAATA | 1.11
AGGTGAACCG | 0.999
AGATAGGTAT | 0.963
AGCTTCAGTG | 0.982

Sequence | switch fluorescence ratio
TAAATTGAGG | 1.01
ATTTTGATGC | 1.05
AGGGGGTGAG | 1.01
TACGGATGCG | 0.942
GTTAGGAGGA | 0.989
GTTCCGAATG | 1.09
GCGCGGGCTT | 0.975
AGACAAGAAA | 1.05
CGGAATTGGT | 0.984
TAAAAAACAC | 1.03
TAGGCTGTGT | 0.971
CTCATTTGTG | 0.968
GCAGGGTAGA | 1.03
CTAAAAGCTT | 0.979
TATTGCCGT | 1.05
TCCTTCCGTG | 2.91
GCCCGAACCT | 1.65
TCCGAAACCG | 1.23
CATTCGTTCA | 1.03
GTTTTAAGCA | 0.998
AAGTGAGGAA | 0.994
GTAATTTATA | 1.02
GGGCGCAAAG | 1.05
TTCACGTTGG | 0.977
TCGTGTTGGG | 0.998
CGTACGGGGC | 1.11

Sequence | switch fluorescence ratio
GGTTATGCTA | 1.01
TCACTTTTTT | 0.973
AATTCCACC | 1.28
TGCCGCGGTT | 1.05
CGCCGGATGT | 0.995
TCATCTACAA | 1.23
GGGTTCTATC | 1.02
ATAGAACAAA | 1
TATGAATCTA | 0.982
TAAGGATGAT | 1
CTATGGGGGC | 0.982
GACTCACAGG | 1.16
TCTTTAGTCT | 1.01
TATATTAGCA | 1.02
GTCTGTTGGG | 0.959
GATCGTCGGT | 0.997
TCGAGAGCCT | 1.03
ATAATGTTCT | 0.994
ACAGCATGAC | 4.21
